Columns and labels:
peritoneal macrophages = test: Inflammatory cytokine production in peritoneal macrophages (ELISA); conditions: for production of TNF α, IL-6 and IL-12: macrophages from wild-type mice
[1] = tested on: dendritic cells derived from bone marrow; test: IL-12 p40 production in bone marrow-derived dendritic cells (ELISA); format: cell-based, mouse; conditions: dendritic cells from TLR9 knockout mice; 0.1 μM, 2 days
[2] = tested on: dendritic cells derived from bone marrow; test: Surface molecule expression on dendritic cells (FACS)

TCC-ATG-ACG-TTC-CTG-ATG-CT (DNA TCCATGACGTTCCTGATGCT; listed as DNA, chemistry not given here) [CpG ODN]
production of inflammatory cytokines (peritoneal macrophages; macrophages from TLR9 knockout mice (TLR9-/-), even in the presence of IFN γ): did not produce a detectable level of inflammatory cytokines | production of TNF α, IL-6 and IL-12 (peritoneal macrophages; further stimulation by IFN γ): increases the amount of producing TNF α, IL-6 and IL-12 | production of TNF α, IL-6 and IL-12 (peritoneal macrophages; supernatant, ELISA): produce TNF α, IL-6 and IL-12 | IL-12 p40 production [1]: did not induce the production of IL-12 | expression of CD40, CD80, CD86 and MHC class II on the surface of dendritic cells ([2]; dendritic cells from TLR9 knockout mouse): does not promote the expression of these molecules | expression of CD40, CD80, CD86 and MHC class II on the surface of dendritic cells ([2]; dendritic cells from wild-type mouse): promotes the expression of CD40, CD80, CD86 and MHC class II

Reference: patent US20030124655A1, “Receptor protein specifically recognizing bacterial dna” (priority 2000, published 2003)
